In PubChem BioAssay AID1460 (National Center for Advancing Translational Sciences (NCATS), 2008):
Where “and” joins values, the source holds several entries; their conditions need not be identical. Identical values can stand only once. Screen size: about 270,000 compounds; about 5,800 (2.1%) were called active. This list was built around the results that the source calls inconclusive (neither active nor inactive); the mix of calls is not that of the screen. Calls come from the whole dose curve; as a rule, active = well fitted inhibition curve with a large enough effect; inconclusive = small, poorly fitted or top-dose-only effect; inactive = flat fitted curve, though single readings scatter. Where the call is inconclusive, the potency comes from a doubtful curve fit.

Target: Microtubule-associated protein tau (Homo sapiens) (UniProt P10636)
Assay: qHTS for Inhibitors of Tau Fibril Formation, Thioflavin T Binding; note: nearly all actives have a fitted effect of over 55% in size
Conditions: recombinant tau K18 P301L (four-repeat tau fragment), heparin-induced fibrillization, ThT fluorescence; series mostly up to 57.4 µM; activity, negative = inhibition: at the top concentration
How it was run: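 K18 P301L tau (15 uM + 0.24 uM Alexa 594-tagged), heparin 20 uM, NaOAc pH 7, 6 h 37 C; ThT 30 uM, 1 h RT, ex 450/em 510 nm.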
% is set by controls: 0 for no effect and ±100 for the full control effect; potency is the fitted concentration of half-maximal effect; tags give direction and shape of the fitted curve.

UniProt P10636, sequence (P10636 whole entry, looked up): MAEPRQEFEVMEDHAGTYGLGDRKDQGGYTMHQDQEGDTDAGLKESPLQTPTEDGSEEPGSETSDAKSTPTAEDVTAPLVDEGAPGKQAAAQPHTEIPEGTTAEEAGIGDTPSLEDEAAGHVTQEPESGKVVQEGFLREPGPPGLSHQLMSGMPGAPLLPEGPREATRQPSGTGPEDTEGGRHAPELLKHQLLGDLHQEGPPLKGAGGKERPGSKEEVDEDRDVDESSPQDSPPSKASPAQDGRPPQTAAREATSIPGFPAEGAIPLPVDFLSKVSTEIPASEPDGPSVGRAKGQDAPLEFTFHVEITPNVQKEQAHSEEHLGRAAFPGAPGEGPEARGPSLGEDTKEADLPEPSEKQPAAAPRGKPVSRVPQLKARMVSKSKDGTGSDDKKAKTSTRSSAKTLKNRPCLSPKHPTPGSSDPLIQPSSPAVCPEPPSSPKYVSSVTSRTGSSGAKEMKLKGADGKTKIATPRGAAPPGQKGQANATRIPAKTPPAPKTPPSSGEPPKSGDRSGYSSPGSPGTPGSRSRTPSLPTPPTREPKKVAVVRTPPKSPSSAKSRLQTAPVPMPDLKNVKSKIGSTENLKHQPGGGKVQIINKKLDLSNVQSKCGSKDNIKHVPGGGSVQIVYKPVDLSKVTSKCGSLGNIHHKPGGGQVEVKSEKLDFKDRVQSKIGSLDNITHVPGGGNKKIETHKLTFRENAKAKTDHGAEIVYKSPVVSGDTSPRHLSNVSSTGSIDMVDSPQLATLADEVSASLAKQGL

Row | SMILES | Potency | activity, negative = inhibition
1 | CCNc1nc(OCC)nc(N2CCC(Cc3ccccc3)CC2)n1 | inconclusive: 10 µM [inhibitor, partial curve] | 
2 | O=C(NNC1=C(C(=O)C(F)(F)F)CCC1)c1ccc(Cl)cc1 | inconclusive: 14.1 µM [inhibitor, partial curve] | 
3 | O=C1Nc2c(c(=O)[nH]c(=O)n2-c2ccc(Cl)cc2)C1(NS(=O)(=O)c1ccccc1)C(F)(F)F (centres undefined) |  | inactive: -3.6%
4 | CCOC(=O)c1ccc(N2CCN(c3cccc(Cl)c3)CC2)c(NC(=O)Nc2ccc(Cl)cc2)c1 | inconclusive: 31.6 µM [activator, partial curve] | 
5 | CCOC(=O)c1[nH]c(C)c(CCC(=O)N2CCN(c3cc(Cl)ccc3C)CC2)c1C | inconclusive: 17.8 µM [inhibitor, partial curve] | 
6 | S=c1[nH]nc(Nc2ccccc2Cl)s1 | inconclusive: 39.8 µM [inhibitor, single point] | 
7 | COc1ccc(NS(=O)(=O)c2ccc(SC)cc2)cc1 |  | inactive: 3.36%
8 | COCc1[nH]nc2c1C(c1ccc(OC)c(OC)c1)C(C#N)=C(N)O2 (centres undefined) |  | inactive: -7.16%
9 | COc1ccc(C2CC(=O)c3cnc(Nc4cc(C)cc(C)c4)nc3C2)cc1 (centres undefined) | inconclusive: 14.1 µM [inhibitor, partial curve] | 
10 | CC1(OC(=O)C2CCCC2)C(=O)C=C2C=C(c3ccsc3)N(Cc3ccco3)C=C2C1=O (centres undefined) | inconclusive: 14.1 µM [inhibitor, partial curve] and inconclusive: 3.98 µM [inhibitor, partial curve] | 
11 | COc1ccc(-n2c(CCC(=O)O)ccc2-c2ccccc2)cc1 | inconclusive: 39.8 µM [inhibitor, single point] | 
12 | CC1(C)CC(c2csc(N)n2)CCO1 (centres undefined) | inconclusive: 3.98 µM [inhibitor, partial curve, poor fit] | 
13 | CC(=O)c1ccc(N2CCN(C(=S)NCc3ccco3)CC2)cc1 | inconclusive: 25.1 µM [inhibitor, partial curve] | 
14 | CCOc1cccc(/C=C2\NC(=S)N(c3ccccc3)C2=O)c1O | active: 14.1 µM | 
15 | COC(=O)C1=C(C(=O)OC)[C@@H]2Nc3ccccc3[C@@]23C[C@@H](C(=O)OC)N(C(=O)c2cc(C)oc2C)C3=N1 | inconclusive: 4.47 µM [inhibitor, single point] | 
16 | CC(C)(C)c1ccc(-c2nc(-c3ccncc3)no2)cc1 | inconclusive: 8.91 µM [inhibitor, partial curve] | 
17 | CN1CCN(c2nc(-c3ccc(N(C)C)cc3)nc3ccccc23)CC1 | inconclusive: 12.6 µM [inhibitor, partial curve] | 
18 | Cn1c(=O)c2c(-c3ccccc3Br)n(C(C)(C)C)cc2n(C)c1=O |  | inactive: -11.6%
19 | CCCC(=O)Nc1ccc2nn(-c3ccc(CC)cc3)nc2c1 | inconclusive: 17.8 µM [inhibitor, partial curve] | 
20 | Cc1cnc2c(c1SCC(=O)N(C)c1ccccc1)c(=O)n(C)c(=O)n2C |  | inactive: -12.9%
21 | O=C(Nc1cc([N+](=O)[O-])ccc1Cl)c1ccc2c(c1)OCO2 |  | inactive: 1.38%
22 | COC(=O)[C@@]1(Cc2ccccc2)[C@H]2c3cc(C(=O)N4CCCC4)n(Cc4c(CO)[nH]cc(C)c4=O)c3C[C@H]2CN1C(=O)c1ccccc1 | inconclusive: 28.2 µM [inhibitor, partial curve, poor fit] | 
23 | Cc1ccc2nc(CSc3nnc(NC(=O)COc4ccccc4F)s3)cc(=O)n2c1 |  | inactive: -11.8%

Row | SMILES | Potency | activity, negative = inhibition
24 | O=C1/C(=C/c2ccco2)SC(=S)N1CC1CCCO1 (centres undefined) | active: 20 µM | 
25 | COc1ccc2c(c1)C(=O)CC(c1ccccc1F)O2 (centres undefined) | inconclusive: 25.1 µM [inhibitor, single point] | 
26 | Cc1cccc(-n2c3nc(=O)[nH]c(=O)c-3cc3cc([N+](=O)[O-])ccc32)c1 | inconclusive: 39.8 µM [inhibitor, single point] | 
27 | COc1ccc2nc(NC(=O)c3sc4nc(C)cc(C)c4c3N)sc2c1 | inconclusive: 0.631 µM [inhibitor, full curve] | 
28 | Nc1nc(Br)c2ccccc2c1-c1ccccc1 | inconclusive: 28.2 µM [inhibitor, single point] | 
29 | Cc1nnc(SCC(=O)c2ccc([N+](=O)[O-])cc2)s1 | inconclusive: 44.7 µM [inhibitor, single point] | 
30 | Cc1cc(C)nc(Nc2n[nH]c(COc3cccc4ccccc34)n2)n1 | inconclusive: 12.6 µM [inhibitor, partial curve, poor fit] | 
31 | Cc1cc([N+](=O)[O-])ccc1NC(=O)Nc1ccc(F)cc1F | inconclusive: 17.8 µM [inhibitor, partial curve] | 
32 | CC(C)(C)c1ccc(OCCNC(=S)NC(=O)c2cccnc2)cc1 | inconclusive: 25.1 µM [inhibitor, single point] | 
33 | CCOC(=O)C1(Cc2ccccc2Cl)CCN(S(=O)(=O)N(C)C)CC1 |  | inactive: -13.4%
34 | COc1ccc(N2CN=C3SCC(=O)N3C2)cc1 |  | inactive: -15.1%
35 | COCCNC(=O)CSc1nc2cc3c(cc2c(=O)n1CCCCCC(=O)NCCc1ccc(OC)c(OC)c1)OCO3 |  | inactive: 2.24%
36 | c1ccc2c(-c3[nH]ncc3CNCCCn3ncc4ccccc43)cccc2c1 |  | inactive: -15.9%
37 | Nc1nc(CN2CCN(c3ccc(F)cc3)CC2)nc(N2CCCc3ccccc32)n1 | inconclusive: 39.8 µM [inhibitor, single point] | 
38 | CCC(=O)Nc1nnc(SCC(=O)c2ccc3c(c2)Cc2ccccc2-3)s1 | inconclusive: 0.891 µM [inhibitor, full curve] | 
39 | O=C(NCc1ccccc1)/C(=C/c1ccco1)NC(=O)c1ccco1 | inconclusive: 39.8 µM [inhibitor, single point] | 
40 | O=C1c2ccccc2-c2onc3c(Br)cc(NC4CCCCC4)c1c23 | active: 11.2 µM | 
41 | CC(=O)c1cc2cc(O)ccc2o1 |  | inactive: -0.908%
42 | Cc1cccc(-c2noc(CN(C(C)C)S(=O)(=O)c3ccc(Br)cc3)n2)c1 | inconclusive: 17.8 µM [inhibitor, partial curve, poor fit] | 
43 | Cc1c(-c2nc(-c3ccc4c(c3)[nH]c(=O)n4C)no2)cccc1[N+](=O)[O-] |  | inactive: -11.5%
44 | COc1cccc(/C=C2\SC(=S)NC2=O)c1OS(=O)(=O)c1ccc(NC(C)=O)cc1 | inconclusive: 20 µM [inhibitor, partial curve] | 
45 | O=C(c1ccc(Cl)c([N+](=O)[O-])c1)N(c1ccccn1)c1ccccn1 |  | inactive: 6.54%
46 | COc1ccccc1N1CCN(C(=O)c2ccc3c(c2)N(Cc2ccccc2)C(=O)c2ccccc2S3(=O)=O)CC1 |  | inactive: -6.43%

Row | SMILES | Potency | activity, negative = inhibition
47 | CCCCn1c(CN2CCN(c3cccc(Cl)c3)CC2)nc2c1c(=O)[nH]c(=O)n2C | inconclusive: 17.8 µM [inhibitor, single point] | 
48 | CCOC(=O)C1=C(C)OC(N)=C(C#N)C1c1ccc(OC)c(CSc2ccccn2)c1 (centres undefined) | inconclusive: 35.5 µM [inhibitor, single point] | 
49 | CC(=O)c1ccc(N2CCN(c3ncc(C(F)(F)F)cc3Cl)CC2)cc1 | inconclusive: 17.8 µM [inhibitor, partial curve] | 
50 | NC(=O)c1cc(N2C(=O)C=CC2=O)ccc1Cl | inconclusive: 22.4 µM [inhibitor, partial curve, poor fit] | 
51 | O=C(O)c1cc(Br)ccc1NN=C1CCCCC1 | active: 20 µM | 
52 | Cc1cc(C)c2c(N=NN3CCOCC3)[nH]nc2n1 | inconclusive: 10 µM [inhibitor, partial curve] | 
53 | CO/N=C/c1ccc(N2CCOCC2)c([N+](=O)[O-])c1 | inconclusive: 12.6 µM [inhibitor, partial curve] | 
54 | COc1ccc(N2CSC3=C(C#N)C(c4cccs4)CC(=O)N3C2)cc1 (centres undefined) | active: 12.6 µM | 
55 | Cc1onc(-c2ccccc2)c1CNS(=O)(=O)c1ccccc1[N+](=O)[O-] |  | inactive: -1.03%
56 | COc1ccc(-c2csc(C3=C(O)CN(CCCN4CCCC4=O)C3=N)n2)cc1OC | inconclusive: 22.4 µM [inhibitor, partial curve] | 
57 | CCN(CC)c1ccc(NC(=O)C(NS(=O)(=O)c2cccs2)C(C)C)c(C)c1 (centres undefined) | inconclusive: 0.562 µM [inhibitor, full curve, poor fit] | 
58 | COCCCNC(=S)NNC(=S)Nc1ccccc1 |  | inactive: -17.6%
59 | Cc1cc(N2CCN(C)CC2)ccc1NC(=O)c1cccc(S(=O)(=O)N2CCc3ccccc3C2)c1 |  | inactive: -15.8%
60 | NCCS | active: 12.6 µM and active: 10 µM and active: 15.8 µM | 
61 | O=C(N/N=C/c1sc(N2CCCCC2)nc1-c1cccs1)C1CC1 | inconclusive: 28.2 µM [inhibitor, partial curve] | 
62 | O=C(CSc1ccccn1)Nc1ccc(N2CCOCC2)cc1 | inconclusive: 12.6 µM [inhibitor, partial curve] | 
63 | COc1ccc(Br)cc1C(=O)Nc1ccc(O)cc1 | inconclusive: 39.8 µM [inhibitor, single point] | 
64 | C(=N/Nc1nccs1)/c1cccnc1 | inconclusive: 22.4 µM [inhibitor, partial curve] | 
65 | COc1cc(OC)cc(C(=O)NNC(=S)Nc2ccccc2OC)c1 | inconclusive: 39.8 µM [inhibitor, single point] | 
66 | CC(C)N=C1SCC(C)(/C=N/O)S1 (centres undefined) | inconclusive: 14.1 µM [inhibitor, partial curve] | 
67 | COc1ccc(S(=O)(=O)N2CCC(c3nnc(-c4ccccc4C)o3)CC2)c(OC)c1 | inconclusive: 17.8 µM [inhibitor, partial curve] | 
68 | O=C(CN1CCCC1)Nc1c2c(nc3ccccc13)N(Cc1ccccc1)CC2 |  | inactive: -22.4%
69 | Cc1nn2c(=O)cc(COC(=O)c3ccccc3NC(=O)C(C)C)nc2s1 | inconclusive: 14.1 µM [inhibitor, partial curve] | 
